Results as given in a compilation of properties of binary mixtures (doi:10.1080/00319100600744993).
Some of these densities may be calculated back from excess volumes.

Assay: xn = mol fraction of the nth substance listed
Settings: 298.15 K, 101 kPa

**Q.** With CCO + CCCCCC[n+]1ccn(C)c1.[Cl-] as the molecule, how does the mass density (x1 = 1) read?
**A.** 785.4 kg/m3

**Q.** What does the source list for CCCCCC[n+]1ccn(C)c1.[Cl-] + CCO?
**A.** mass density (x2 = 0): 1040.4 kg/m3; mass density (x2 = 0.098): 1032.8 kg/m3; mass density (x2 = 0.196): 1024 kg/m3; mass density (x2 = 0.2898): 1014 kg/m3; mass density (x2 = 0.568): 972.7 kg/m3; mass density (x2 = 0.903): 857.5 kg/m3; mass density (x2 = 0.9047): 857 kg/m3; mass density (x2 = 0.9445): 831.5 kg/m3

**Q.** Which results are given for CCCCCC[n+]1ccn(C)c1.[Cl-] + O?
**A.** mass density (x2 = 0.3013): 1042.2 kg/m3; mass density (x2 = 0.389): 1042.3 kg/m3; mass density (x2 = 0.9088): 1023.6 kg/m3
